Laboratory results from PubChem BioAssay AID493208 (National Center for Advancing Translational Sciences (NCATS), 2011).
Out of some 44,000 compounds screened, about 340 (0.77%) were called active. Not shown: some 5% with an inconclusive outcome. The call rests on the fitted dose curve; in most records, active means well fitted inhibition curve with a large enough effect; inconclusive means small, poorly fitted or top-dose-only effect; inactive means flat fitted curve, though single readings scatter. The list shows a part of the results.

Test: Acumen qHTS Assay for Inhibitors of the mTORC1 Signaling Pathway in MEF (Tsc2-/-, p53-/-) Cells: Sytravon;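 further: plate controls were DMSO for no effect and rapamycin for full effect; nearly all actives have a fitted effect of over 50% in size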
Settings: phospho-rpS6 immunofluorescence/PI, 24 h; series mostly up to 38.3 µM; activity change, negative = inhibition: at the top concentration
How it was run: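 Readout is phospho-S6 Alexa 488 signal normalized to PI per well, reported as % active cells with thresholds set from rapamycin (7.5 nM) and DMSO controls. Cells: Tsc2-/-, p53-/- MEFs, 24 hrs compound at 37 C; PI cell number serves as viability.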

Activity change, negative = inhibition, inactive:
CCOc1ccc(C(=O)CSc2nc3cc(C(=O)NC4CCCC4)ccc3c(=O)n2CC2CCCO2)cc1 (stereo unspecified) 1.19%
CC(=O)c1ccc(NC(=O)c2ccc3c(c2)nnn3C2CCCC2)cc1 7.93%
CCOc1ccc(CCn2c3c(c(=O)[nH]c2=O)C(NC(=O)c2ccccc2)(C(F)(F)F)C(=O)N3)cc1OCC (stereo unspecified) 3.05%
CCCCCn1c(=O)[nH]c2cc(C(=O)N3CCN(c4cc(Cl)ccc4C)CC3)ccc2c1=O 5.63%
CCOC(=O)N1CCC(NC(=O)c2ccc3c(c2)N(Cc2cc(C)ccc2C)C(=O)c2ccccc2S3(=O)=O)CC1 0.0607%
Cc1ccc(C(=O)OCc2cc(=O)n3nc(-c4cccs4)sc3n2)cc1 -3.88%
Cc1ccccc1C(=O)OCc1cc(=O)n2nc(C3CC3)sc2n1 -9.99%
CCOC(=O)c1c(S(=O)(=O)NCC(=O)Nc2cc(C)ccc2OC)c(C)n(C)c1C -0.278%
COc1ccc(NC(=O)CSc2nc3ccccc3nc2Cc2ccc(C)cc2)cc1Cl -16.5%
O=C(Cn1cc(SCc2ccccc2F)c2ccccc21)N1CCCCCC1 -12.1%
COc1ccccc1NC(=O)Cn1c(=O)n(Cc2cccs2)c(=O)c2cccnc21 -6.1%
CCN(CC)c1ccc2cc(-c3nc(-c4ccc(Cl)cc4Cl)cs3)c(=O)oc2c1 0.25%
Cc1nc(-c2ccccc2)sc1-c1ccc(SCC(=O)NCc2ccccc2)nn1 4.9%
CCOC(=O)c1ccc(Nc2nc3nonc3nc2Nc2cccc(C)c2C)cc1 -20.1%
Cc1coc2cc3oc(=O)c(CC(=O)NCc4ccccc4)c(C)c3cc12 -8.8%
CC(=O)N1CCCc2cc(S(=O)(=O)N3CCCC(C(=O)Nc4ccc(C)c(C)c4)C3)ccc21 (stereo unspecified) -4.49%
CC(C)(C)c1ccc(S(=O)(=O)Nc2ccc(O)c(Sc3nc4ccccc4s3)c2)cc1 11.9%
Cc1ccc(C(=O)Nc2ccc3oc(-c4cccnc4)nc3c2)c(Cl)c1 5.21%
CCOc1ccccc1NC(=O)c1cc(S(=O)(=O)NC2CCCC2)ccc1F 11.2%
COc1cccc(-c2cnc(NCc3ccccc3Cl)n2C)c1 -29.6%
Cc1ccc(S(=O)(=O)Nc2cc3c(cc2Cl)n(C)c(=O)c(=O)n3C)cc1 0.541%
CCOc1ccc2nc(N3CCC(C(=O)Nc4c(C)cccc4C)CC3)sc2c1 1.93%
Cc1ccc(-n2ncc(C(=O)N3CCC(c4ccccc4)C3)c2C2CCN(C(=O)OC(C)(C)C)CC2)cc1 (stereo unspecified) 4.39%
CCCCOc1ccc(CNC(=O)c2ccc(NC(=O)N3CCSc4ncccc43)cc2)cc1 -3.18%
O=S(=O)(Nc1cccc(-c2ccc(N3CCOCC3)nn2)c1)c1ccc(F)cc1F -11.7%
O=C(Nc1nc(-c2ccc(Br)cc2)ns1)c1ccccc1F 1.14%
CCCc1nn2c(C)c(-c3ccccc3)nc2s1 -3.17%
COC(=O)CCN(C(=O)c1c(C)oc2ncnc(N3CCOCC3)c12)c1ccccc1 1.43%
Cc1cccc(N2CCN(C(=O)C3CCN(S(=O)(=O)c4ccc5c(c4)oc(=O)n5C)CC3)CC2)c1C -0.0585%
Cc1cc(C)c2oc(C(=O)Nc3ccc(S(=O)(=O)N(C)c4ccccc4)cc3)cc(=O)c2c1 3.11%
O=c1c2c3c(sc2n(Cc2cc(=O)n4ccccc4n2)c(=O)n1-c1ccc(Cl)cc1)CCC3 12.5%
O=C(/C=C/c1ccccc1)N1CCN(Cc2cc(=O)n3nc(-c4ccccc4)sc3n2)CC1 0%
CCN(c1cc(C)cc(C)c1)S(=O)(=O)c1nnc(NC(=O)c2cccc(F)c2)s1 8.5%
CCCOc1ccc(C2C(=O)N(C3CCCCCC3)CC(=O)N2CCCOCC)cc1OC (stereo unspecified) 9.66%
Cc1ccccc1NC(=O)c1sc2nc(N3CCOCC3)c3c(c2c1N)CC(C)(C)OC3 -4.55%
CCOc1ccccc1N(C)C(=O)Cn1nc(Cc2cccnc2)c2ccccc2c1=O 1.06%
COc1cc(NC(=O)N2CCN(c3cc(-c4noc(C)n4)ccc3C)CC2)cc(OC)c1OC -0.517%
Cc1ccc(NC(=O)/C(C#N)=C\c2ccc(Cl)cc2Cl)cc1C -1.89%
COc1ccc2c(c1)c1c(c(=O)n(CCc3ccccc3)c(=O)n1Cc1ccc(Cl)cc1)n2C -1.35%
CC(C)c1ccccc1NC(=O)CSc1nnc(COc2ccccc2Cl)o1 -7.51%
CCN(c1ccc(C)cc1)S(=O)(=O)c1nnc(NC(=O)c2cccs2)s1 -1.21%
CCOc1ccccc1NC(=O)N1CCN(S(=O)(=O)c2ccc3c(ccn3C)c2)CC1 -1.66%
Nc1c(-c2nc(-c3ccccc3)no2)nnn1CC(=O)Nc1ccccc1 0%
COc1ccccc1CNC(=O)Cn1ncc2c(C)n(Cc3ccccc3Cl)c(C)c2c1=O 2.04%
Cc1ccc(-c2ccc(CCC(=O)O)n2-c2ccc(C(C)C)cc2)cc1 2.96%
CCN(CC)CCNC(=O)c1cc2c(=O)[nH]c3ccc(C)cc3c2s1 -1.18%
O=C(NCc1ccccn1)c1nn(-c2ccccc2Cl)nc1CO 2.27%
Cc1ccccc1NC(=O)c1ccc(CNS(=O)(=O)c2ccc3c(c2)C(C)(C)C(=O)N3C)cc1 1.69%
Cc1cc(NC(=O)CSc2ncc(C(=O)Nc3ccccc3)c(=O)n2C)no1 0.0117%
CCN(CC)C(=O)C1=C(C)Nc2nc3ccccc3n2C1c1ccc(Cl)cc1 (stereo unspecified) -0.0124%
CSc1ncc(C(=O)Nc2cccc(Cl)c2C)c(-c2ccccc2)n1 0%
CCNC(=O)CC1C(=O)N(c2ccc(F)cc2)C(=O)N1Cc1ccc(C)cc1 (stereo unspecified) -2.6%
Cc1ccc(Cl)cc1N(C)C(=O)c1cc2ccc3cccnc3c2[nH]1 -11.6%
CCCCOc1ccc(C(=O)NCCc2csc3nc(-c4ccccc4F)nn23)cc1 -1.86%
CS(=O)(=O)N1CCC(N2CCN(Cc3ccc(F)cc3)C(=O)C2=O)CC1 -0.672%
CCOc1ccccc1C(=O)NCC(c1ccc(N(C)C)cc1)N1CCCC1 (stereo unspecified) 0%
CSc1ccc(CCNC(=O)c2ccc3c(c2)c(C)c(C)n3Cc2ccc(F)cc2)cc1 -23%
CCn1c(CN2CCN(C)CC2)nc2cc(NC(=O)c3cc(OC)c(OC)c(OC)c3)ccc21 0.307%
CC(=O)c1cccc(NC(=O)c2cc(-c3ccc4c(c3)OCCO4)on2)c1 -15.8%
CCOC(=O)CNC(=O)Cn1nc(N2CCN(c3ccccc3)CC2)ccc1=O -1%
COc1ccc(CCNC(=O)c2cc3c(=O)[nH]c4ccc(C)cc4c3s2)cc1OC -13%
